Laboratory results published in PubChem BioAssay AID485281 (National Center for Advancing Translational Sciences (NCATS), 2010).
The whole screen tested about 350,000 compounds, of which about 260 (0.074%) were called active. The inconclusive results got no clear call from the source; some entries with a clear call stand among them for comparison. The call rests on the fitted dose curve; in most records, active means well fitted inhibition curve with a large enough effect; inconclusive means small, poorly fitted or top-dose-only effect; inactive means no such curve, though single readings can be large or run the other way. Potencies of inconclusive entries are doubtful fits and often do not repeat.

What follows are molecules tested against Ferritin light chain (Equus caballus) (UniProt P02791) (assay: qHTS Assay for Identification of Novel General Anesthetics). Conditions: apoferritin/1-aminoanthracene competitive binding, fluorescence; series mostly up to 77.5 µM.
Method in brief: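 Read-out: endpoint 1-AMA fluorescence, excitation 380 nm and emission 535 nm, after compounds sit 10 min at room temperature with 10 uM horse-spleen apoferritin in 50% saturated 1-AMA/PBS. Values come from four-parameter Hill fits.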
Further: nearly all actives have a fitted effect of over 20% in size.
Potency means the concentration at half of the fitted maximal effect; tags describe the fitted curve by direction and shape.

Chain of UniProt P02791 (P02791 whole entry, looked up): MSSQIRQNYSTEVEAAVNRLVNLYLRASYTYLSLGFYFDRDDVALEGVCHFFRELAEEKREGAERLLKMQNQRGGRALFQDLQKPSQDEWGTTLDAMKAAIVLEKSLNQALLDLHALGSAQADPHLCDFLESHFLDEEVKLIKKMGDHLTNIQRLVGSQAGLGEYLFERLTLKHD

Compound | Potency
CCOc1ccc(C(=O)NCC(=O)OCC(=O)N2CCC(C)CC2)cc1 | inconclusive: 25.1 µM [inhibitor, partial curve]
Cc1ccc(N/N=C/c2ccc3c(c2)OCCO3)cc1Cl | inactive
Cc1cc(C)c2[nH]c(=O)c(C(c3nnnn3CC3CCCO3)N3CCCC(C)C3)cc2c1 (stereo not drawn) | inactive
CCc1cc2c(=O)n(-c3ccccc3)cnc2s1 | inconclusive: 35.5 µM [inhibitor, partial curve]
N/C(CSc1nc(-c2ccccc2)c(-c2ccccc2)o1)=N\O | inconclusive: 35.5 µM [inhibitor, partial curve]
c1ccc(-c2csc3ncnc(N4CCc5ccccc5C4)c23)cc1 | inactive
CC=C(/C(=C/C)c1ccc(O)cc1)c1ccc(O)cc1 | inconclusive: 11.2 µM [inhibitor, single point]
COc1ccc(/C=C2\CN(Cc3ccccc3)C/C(=C\c3ccc(OC)cc3OC)C2=O)c(OC)c1 | inconclusive: 7.08 µM [inhibitor, partial curve]
COc1ccc(/C=N/NC(=O)c2cccc(O)c2)cc1Cn1nc(C)c([N+](=O)[O-])c1C | inconclusive: 14.1 µM [inhibitor, partial curve]
O=c1c[n+]([O-])c2ccccc2n1OCc1c(F)cccc1F | inactive
CCCCCCc1ccc(C(=O)CCN(C)C)cc1 | inconclusive: 35.5 µM [inhibitor, partial curve]
COc1cccc(-c2nnc(Nc3nc4c(F)cccc4s3)o2)c1 | inactive
O=C(NN1CCOCC1)c1cccc(COc2cccc(Br)c2)c1 | inconclusive: 31.6 µM [inhibitor, single point]
O=C(Cc1cccs1)NCc1cc(Cl)cc(Cl)c1 | inactive
O=C(N/N=C/c1cccc(OC(=O)c2cccc(Br)c2)c1)c1ccncc1 | inconclusive: 31.6 µM [inhibitor, single point]
COc1cccc(CN(C)C(=O)c2cc(COc3ccc4ncccc4c3)on2)c1 | inconclusive: 25.1 µM [inhibitor, partial curve]
CCOc1ccccc1N1CCN(C(=O)c2cc3cc(OC)ccc3[nH]2)CC1 | inconclusive: 35.5 µM [inhibitor, single point]
CCOc1ccc(NC(=S)Nc2ccc(Br)cc2Cl)cc1 | inconclusive: 39.8 µM [inhibitor, single point]
Cc1cc2c(c(=O)n1C)C(Cc1ccccc1)C(C#N)=C(N)O2 (stereo not drawn) | inactive
Cc1ccc(C(C)NC(=O)/C(C#N)=C\c2c(C)[nH]c3ccccc23)cc1 (stereo not drawn) | inconclusive: 3.55 µM [inhibitor, full curve]
O=C(COC(=O)C1CCCCC1)Nc1ccc(N2CCCCC2)cc1 | inconclusive: 31.6 µM [inhibitor, partial curve]
COC(=O)NCc1ccc2c(c1)OCO2 | inconclusive: 44.7 µM [inhibitor, partial curve]

Compound | Potency
CN(C)S(=O)(=O)c1cccc(NC(=O)COC(=O)CCC(=O)c2ccc(F)cc2)c1 | inconclusive: 31.6 µM [inhibitor, single point]
COc1cc(/C=C/C(=O)OCC(=O)Nc2cccc(Oc3ccccc3)c2)ccc1O | inconclusive: 11.2 µM [inhibitor, full curve, poor fit]
CCC(C(=O)Nc1nc(C)cs1)c1ccccc1 (stereo not drawn) | inconclusive: 35.5 µM [inhibitor, single point]
Cc1c([N+](=O)[O-])cc(C(=O)Oc2ccc(Br)cc2C(=S)N2CCCCC2)cc1[N+](=O)[O-] | inconclusive: 20 µM [inhibitor, partial curve]
CCSC1=C(C#N)C(c2ccccc2Cl)CC(=O)N1 (stereo not drawn) | inconclusive: 25.1 µM [inhibitor, partial curve]
COc1cccc(-c2ccc(NC(=O)C3CCCN(Cc4cnc(C)n4C)C3)cc2)c1 (stereo not drawn) | inconclusive: 22.4 µM [inhibitor, partial curve]
Cc1ccccc1-c1nc(CS(=O)CC(=O)NC2CCCCC2)c(C)o1 (stereo not drawn) | inconclusive: 17.8 µM [inhibitor, partial curve]
CCOCCn1c(CN2CCN(c3cccc(Cl)c3)CC2)nc2c1c(=O)n(C)c(=O)n2C | inactive
COCc1cccc(NC(=O)CCc2ccccc2)c1 | inconclusive: 39.8 µM [inhibitor, single point]
CCCCCCCCCCCCCCCC[n+]1ccc(C(N)=O)cc1 | inconclusive: 50.1 µM [inhibitor, single point]
COc1ccc(C(=O)OCCN2C(=O)c3ccccc3C2=O)cc1 | inconclusive: 8.91 µM [inhibitor, partial curve]
COc1cccc(C(=O)NCC(=O)N/N=C/c2cccnc2)c1 | inconclusive: 35.5 µM [inhibitor, partial curve, poor fit]
Cc1ccc(Nc2nc(N)c([N+](=O)[O-])c(NCc3ccco3)n2)cc1C | inconclusive: 56.2 µM [inhibitor, single point]
CCOc1ccc(-c2n[nH]c(C)c2Oc2ccccc2OC)c(O)c1 | inconclusive: 5.01 µM [inhibitor, partial curve]
CC1(C)Cc2c(C#N)c(N3CCN(C(=O)c4ccccc4Cl)CC3)nc(-c3ccco3)c2CS1 | inconclusive: 8.91 µM [inhibitor, partial curve]
O=Cc1ccc(OCc2cccc(C(F)(F)F)c2)cc1O | inconclusive: 31.6 µM [inhibitor, partial curve]
COc1ccc(NC(=O)N2CCCCCC2)c(OC)c1 | inactive
O=C(CCCOc1ccc(Cl)cc1Cl)NCc1ccncc1 | inconclusive: 31.6 µM [inhibitor, single point]
Fc1ccc(CSc2nc3ncccc3[nH]2)cc1 | inconclusive: 39.8 µM [inhibitor, partial curve]
O=S(=O)(Nc1ccc(Oc2ncccn2)c(Cl)c1)c1ccc(F)cc1 | inconclusive: 28.2 µM [inhibitor, partial curve]
COC(=O)C(=Nc1ccccc1)/C(C(=O)C(=O)N(C)c1ccccc1)=C(\O)c1ccc(Cl)cc1 | inconclusive: 28.2 µM [inhibitor, single point]
